Results on 27 compounds are retold here after the antibiotic and cytotoxicity screens of Wong et al. (2023).

Molecules are shown by their SMILES. The list shows a part of the results.

This experiment has as its system HSkMC (human skeletal muscle cells). The experiment can be described thus: cytotoxicity call (relative viability < 0.9). The settings on record: 10 µM.
`C[C@H]1CCCCO[C@@H](CN(C)C(=O)CCC(F)(F)F)[C@@H](C)CN([C@@H](C)CO)C(=O)c2cc(NS(=O)(=O)c3ccccc3)ccc2O1`: the cytotoxicity call is “inactive”. `C[C@H]1CN([C@@H](C)CO)C(=O)c2cc(NC(=O)Nc3cccc4ccccc34)ccc2O[C@H]1CN(C)S(=O)(=O)c1ccc(F)cc1`: the cytotoxicity call is “inactive”.

As for `C[C@H](CO)N1C[C@H](C)[C@H](CN(C)C(=O)Nc2ccc(F)cc2)Oc2ccc(NC(=O)CCCCCC(=O)Nc3ccccc3N)cc2C1=O`, the cytotoxicity call is “inactive”. Turning to `C[C@@H]1CN([C@@H](C)CO)C(=O)c2cc(NC(=O)Nc3ccc4c(c3)OCO4)ccc2O[C@H]1CN(C)S(=O)(=O)c1cn(C)cn1`, the cytotoxicity call was “inactive”. Turning to `Cc1ccc(S(=O)(=O)N(C)C[C@@H]2OCCCC[C@@H](C)Oc3ccc(NC(=O)Nc4ccc(F)cc4)cc3C(=O)N([C@H](C)CO)C[C@H]2C)cc1`, the cytotoxicity call is “inactive”. Next, `c1ccc2c(c1)Cn1nnnc1-2`: “inactive”.

Take `C[C@H]1CCCCO[C@H](CN(C)C(=O)Nc2ccccc2)[C@@H](C)CN([C@@H](C)CO)C(=O)c2cc(NC(=O)Nc3cccc4ccccc34)ccc2O1`: the cytotoxicity call is “inactive”. For `CN1C(=O)c2cc(NS(=O)(=O)c3cccc(F)c3)ccc2OC[C@H]2O[C@@H](CC(=O)NCCN3CCCCC3)CC[C@H]21`, the cytotoxicity call was “inactive”.

As to `CC(C)N1C[C@H](C)[C@@H](CN(C)Cc2ccc(Oc3ccccc3)cc2)Oc2c(NC(=O)c3ccccn3)cccc2C1=O`, the cytotoxicity call was “inactive”. Next, `C[C@@H]1CN([C@H](C)CO)C(=O)c2cc(NS(=O)(=O)c3cccs3)ccc2O[C@@H](C)CCCCO[C@@H]1CN(C)C(=O)Cc1ccccc1`: “inactive”. `COCCOC(=O)N1C(=O)[C@@]2(c3cc(C#CCNC(N)=O)ccc31)[C@H](c1ccc(O)cc1)N1[C@H](c3ccccc3)[C@H](c3ccccc3)OC(=O)[C@H]1[C@@H]2C(=O)N1CCc2cc(OC)c(OC)cc2C1`: the cytotoxicity call is “inactive”. Turning to `C[C@@H]1CN([C@H](C)CO)S(=O)(=O)c2ccc(C#CC(C)(C)O)cc2O[C@H]1CN(C)C(=O)CN(C)C`, the cytotoxicity call was “inactive”. For `C[C@H]1CCCCO[C@@H](CN(C)C(=O)c2ccccc2)[C@@H](C)CN([C@@H](C)CO)C(=O)c2cc(NS(=O)(=O)c3ccccc3)ccc2O1`, the cytotoxicity call is “inactive”. Next, `Cc1ccccc1N1CCN(S(=O)(=O)C[C@]23CC[C@H](C[C@@H]2NC(=O)[C@@H](N)CCS(C)(=O)=O)C3(C)C)CC1`: “inactive”; `Cc1ccc(S(=O)(=O)N(C)C[C@H]2Oc3cc(Br)ccc3S(=O)(=O)N([C@H](C)CO)C[C@H]2C)cc1`: “inactive”; `COc1ccc(S(=O)(=O)N(C)C[C@@H]2OCCCC[C@@H](C)Oc3ccc(NC(=O)Nc4ccc(F)cc4)cc3C(=O)N([C@@H](C)CO)C[C@H]2C)cc1`: “inactive”. As for `Cc1noc(C)c1NC(=O)N(C)C[C@H]1OCCCC[C@@H](C)Oc2ccc(NS(=O)(=O)c3ccc(Cl)cc3)cc2C(=O)N([C@H](C)CO)C[C@@H]1C`, the entry is “inactive”. Next, `Cc1ccc(S(=O)(=O)N2C[C@H](O)COC[C@H]3O[C@H](CC(=O)NCc4ccc5c(c4)OCO5)CC[C@@H]32)cc1`: “inactive”; `COc1ccc2c(=O)c(OC)c(-c3ccccc3)oc2c1`: “inactive”; `CO[C@@H]1CN(C)C(=O)c2ccc(NC(=O)CN(C)C)cc2OC[C@@H](C)N(C(=O)C2CCOCC2)C[C@H]1C`: “inactive”. Regarding `CCCN(C)C[C@H]1OCCCC[C@@H](C)Oc2ccc(NC(=O)NC3CCCCC3)cc2C(=O)N([C@@H](C)CO)C[C@H]1C`, the cytotoxicity call was “inactive”.

On to `Cc1ccc(S(=O)(=O)Nc2ccc3c(c2)C(=O)N([C@@H](C)CO)C[C@@H](C)[C@@H](CN(C)C(=O)Nc2c(C)noc2C)OCCCC[C@H](C)O3)cc1`, for which the cytotoxicity call was “inactive”. As to `C[C@@H]1CCCCO[C@@H](CN(C)Cc2ccccc2)[C@@H](C)CN([C@@H](C)CO)C(=O)c2cc(NC(=O)Nc3ccc4c(c3)OCO4)ccc2O1`, the cytotoxicity call is “inactive”.

For the compound `C[C@H]1CN([C@@H](C)CO)C(=O)Cc2cc(NC(=O)c3ccncc3)ccc2O[C@H]1CN(C)Cc1ccncc1`, the cytotoxicity call is “inactive”. Regarding `CCN(CC)c1ccc(N2CC=C[C@@]34O[C@@H]5/C=C\CCCOC(=O)[C@@H]5[C@H]3C(=O)N(CCCCCCO)[C@@H]4C2=O)cc1`, the cytotoxicity call was “inactive”. Next, `C[C@H](CO)N1C[C@H](C)[C@@H](CN(C)C(=O)Nc2ccc3c(c2)OCO3)Oc2ccc(NS(C)(=O)=O)cc2C1=O`: “inactive”; `C[C@H]1CN([C@@H](C)CO)C(=O)Cc2cc(NS(=O)(=O)c3ccc(Cl)cc3)ccc2O[C@@H]1CN(C)Cc1ccc(Oc2ccccc2)cc1`: “active”.
